Out of some 45,000 compounds screened, about 65 (0.1%) were called active. The call rests on the fitted dose curve; in most records, active means well fitted activation curve with a large enough effect; inconclusive means small, poorly fitted or top-dose-only effect; inactive means no such curve, though single readings can be large or run the other way. The list shows a part of the results.

UniProt P54803, sequence (P54803 whole entry, looked up): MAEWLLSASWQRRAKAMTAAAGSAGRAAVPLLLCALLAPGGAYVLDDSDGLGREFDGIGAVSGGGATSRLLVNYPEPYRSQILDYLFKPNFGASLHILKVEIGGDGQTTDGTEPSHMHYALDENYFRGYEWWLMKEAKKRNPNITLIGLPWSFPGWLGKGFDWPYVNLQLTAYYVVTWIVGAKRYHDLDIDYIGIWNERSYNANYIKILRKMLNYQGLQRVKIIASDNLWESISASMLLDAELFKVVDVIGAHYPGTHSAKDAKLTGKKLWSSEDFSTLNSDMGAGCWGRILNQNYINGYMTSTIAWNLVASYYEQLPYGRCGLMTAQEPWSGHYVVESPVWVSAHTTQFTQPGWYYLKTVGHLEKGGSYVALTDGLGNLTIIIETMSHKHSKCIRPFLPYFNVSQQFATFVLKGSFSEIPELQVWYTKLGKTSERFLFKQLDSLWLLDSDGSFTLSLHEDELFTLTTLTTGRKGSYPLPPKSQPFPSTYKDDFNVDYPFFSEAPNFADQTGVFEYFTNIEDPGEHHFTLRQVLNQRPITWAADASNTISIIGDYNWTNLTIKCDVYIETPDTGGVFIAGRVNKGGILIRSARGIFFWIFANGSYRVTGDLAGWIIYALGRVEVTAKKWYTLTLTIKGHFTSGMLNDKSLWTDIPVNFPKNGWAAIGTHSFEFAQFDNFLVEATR

The target in the experiment is Galactocerebrosidase (Homo sapiens) (UniProt P54803). The experiment can be described thus: A Novel Cell-Based Assay to Identify Small Molecules for B -Galactocerebrosidase. Further: 0% is about no effect; nearly all actives have a fitted effect of over 65% in size. The following applies: 145M-Twi-hGALC-G270D cells (Twitcher mouse brain line with human GALC G270D), HMU-beta-Gal fluorescence, 48 h; series mostly up to 57.5 µM; activation: at the top concentration. Summed up:
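Brain-derived Twitcher mouse 145M-Twi cells stably expressing human GALC-G270D or wild-type GALC, treated live, then residual GALC activity read by fluorescence of HMU-b-Gal substrate (0.1 mM final) in citrate-phosphate buffer pH 5.2 with sodium taurocholate. Signal increase indicates enhancement.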
As for `Cc1onc(-c2ccccc2Cl)c1C(=O)Oc1ccc(Cl)cc1Cl`, the “activation” value is inactive: -5.98%.
The value for `CCOc1ccccc1NC(=O)COC(=O)CC(C)(C)CC1=NS(=O)(=O)c2ccccc2N1` was inactive: -8.25%.
Then `Cc1ccc(C)c(NC(=O)C(=O)NCCCN2CCOCC2)c1`, with inactive: -10.6%.
As to `CCOc1ccc(CCNC(=O)c2cnc3c(-c4ccc(F)cc4)c(C)nn3c2C)cc1`, the “activation” value was inactive: -4.53%.
As to `O=C(NCCCN1CCN(c2ccccc2)CC1)c1sc2ncccc2c1-n1cccc1`, the “activation” value was inactive: -15.8%.
Then `CN1C(C(=O)Nc2cccc(O)c2)=CC(c2cccs2)=NS1(=O)=O`, with inactive: -9.31%; and `COc1ccc(C(=O)c2cn(Cc3ccccc3)c3ccccc3c2=O)cc1OC`, with inactive: -15.2%; and `O=C(NCCc1nc2ccccc2n1Cc1ccccc1F)c1ccc(F)cc1`, with inactive: -15%.
Then `COc1ccc(N(C(=O)c2ccccc2C)S(=O)(=O)c2ccc(Cl)cc2)cc1`, with inactive: -9.96%; and `COc1cc(S(=O)(=O)NCCc2c(C)[nH]c3ccc(C)cc23)ccc1Br`, with inactive: 2.57%; and `Nc1ncc(S(=O)(=O)NCc2ccccc2)cn1`, with inactive: -0.991%.
`Cc1cccc(N2CCN(C(=O)C3CCN(C(=O)c4cc5sccc5n4C)CC3)CC2C)c1` (stereo not drawn): the “activation” value is inactive: -22.8%.
Then `COc1ccc(CN(C)c2ccc(-c3nc(-c4ccc(OC)c(OC)c4)no3)cc2[N+](=O)[O-])cc1`, with inactive: -4.47%.
The value for `O=C(Nc1cc(Cl)cc(Cl)c1)c1cc(S(=O)(=O)NC2CCCC2)ccc1F` was inactive: -4.11%.
Consider `CN1C(=O)c2cccc3c(S(=O)(=O)Nc4cccc(C(=O)O)c4)ccc1c23`, for which the “activation” value is inactive: -20.3%.
The value for `CCOc1ccc(NC(=O)CN(Cc2ccccc2)S(=O)(=O)c2ccc3nc(C)sc3c2)cc1` was inactive: -6.74%; that for `CCOc1ccc(CCNC(=O)Cn2c(-c3cccs3)cc3ccccc32)cc1` was inactive: -6.67%; that for `COc1cn(CC(=O)Nc2cc(C)cc(C)c2)c(CN2CCCCC2)cc1=O` was inactive: -12.8%.
Then `CCC(C)S(=O)(=O)c1oc(-c2cccs2)nc1S(=O)(=O)c1ccccc1` (stereo not drawn), with inactive: -16.6%; and `CCOc1ccccc1CNCc1c(C(=O)O)c(C)n(Cc2ccc(C)cc2)c1C`, with inactive: -11.8%.
In the case of `CN1CCc2nc3sc(C(=O)c4ccc(F)cc4)c(N)c3cc2C1`, the “activation” value is inactive: -11.2%.
Then `COc1cccc(-c2nnc(SCC(=O)N(C)C3CCCCC3)o2)c1`, with inactive: -14.8%; and `Cc1cccc(NC(=O)c2oc3ccccc3c2NC(=O)c2cc(=O)c3ccccc3o2)c1`, with inactive: -14.1%; and `CCOc1ccc(N2CC(NC(=O)c3ccc(Cl)cc3)CC2=O)cc1` (stereo not drawn), with inactive: -8.63%.
Then `CCN(CC)S(=O)(=O)c1ccc(OC)c(NC(=O)c2sc3ccccc3c2Cl)c1`, with inactive: 2.74%; and `CN(c1ccc(F)cc1)S(=O)(=O)N1CCCC(C(=O)NCc2ccccc2Cl)C1` (stereo not drawn), with inactive: -21.4%.
The value for `Cc1ccc2c(c1)c1c(c(=O)n(Cc3ccccc3)c(=O)n1Cc1ccccc1F)n2C` was inactive: 1.63%.
As to `NC(CO)(CO)CO`, the “activation” value was inactive: -19.1%.
Consider `CNC(=O)CN1C(=O)COc2ccc(S(=O)(=O)N3CCCCCC3)cc21`, for which the “activation” value is inactive: -8.27%.
`CCOC(=O)N1CCc2c(sc3c2c(=O)n(Cc2ccccc2)c(=O)n3CC(=O)Nc2ccc(F)cc2)C1`: the “activation” value was inactive: -3.54%.
Then `COc1cccc(NC(=O)Cn2c(=O)n(Cc3ccc4c(c3)OCO4)c(=O)c3oc4ccccc4c32)c1`, with inactive: -14.7%; and `Cc1ccc(-n2ncc(C(=O)NCCN3CCN(C)CC3)c2C2CCN(C(=O)OC(C)(C)C)CC2)cc1C`, with inactive: 0.0269%.
Then `COc1ccc(NC(=O)[C@H](Cc2ccccc2)N2Cc3ccccc3C2=O)cc1OC`, with inactive: 12.1%; and `CCOc1ccc(CNC(=O)Cn2c(=O)c3cccn3c3cccnc32)cc1`, with inactive: -8.79%.
Take `COc1ccc2c(c1)c(N1CCCC1=O)c(C(=O)Nc1ccc(OC)c(Cl)c1)n2C`: the “activation” value is inactive: -22.1%.
Then `CC(=O)c1cccc(NS(=O)(=O)c2c(C(=O)N3CCCCCC3)c(C)n(C)c2C)c1`, with inactive: -17.2%.
For `Cc1ccc(S(=O)(=O)c2cn(Cc3ccccc3)c3cc(N4CCOCC4)c(F)cc3c2=O)cc1`, the “activation” value was inactive: -7.84%.
The value for `CCc1ccc(CNC(=O)CCn2nc(C)c3c(C)n(-c4ccccc4)nc3c2=O)cc1` was inactive: -16.7%; that for `COc1cc(NC(=O)c2noc3c2CC(C)CC3)c(OC)cc1Cl` (stereo not drawn) was inactive: -14.2%.
For `CCc1ccc(NC(=O)c2cc(S(=O)(=O)NC3CCCCCC3)ccc2F)cc1`, the “activation” value was inactive: -2.52%.
The value for `Cc1nn(-c2ccccc2)c2c1N(CC(=O)N1CCN(c3ccc(Cl)cc3)CC1)C(=O)CS2` was inactive: -8.05%; that for `Cc1nn(-c2ccccc2)c2c1N(CCCC(=O)NC(C)c1ccccc1)C(=O)CS2` (stereo not drawn) was inactive: -14%; that for `Cc1nn2c(-c3ccccc3)cc(-c3ccccc3)nc2c1-c1ccc(Cl)cc1` was inactive: -10.9%.
Then `COc1ccc(C(CC(=O)Nc2ncccc2C)N2Cc3ccccc3C2=O)cc1OC` (stereo not drawn), with inactive: 8.63%; and `O=C(Nc1ccccc1)c1cccc(N2CCCS2(=O)=O)c1`, with inactive: -15.1%.
For `Cc1cc(C)n2nc(CNC(=O)c3ccc(Cl)cc3)nc2n1`, the “activation” value was inactive: -2.9%.
The value for `COc1ccc(-n2c(SCCC(C)C)nc3sc4c(c3c2=O)CC(C(C)C)OC4)cc1` (stereo not drawn) was inactive: -15.1%; that for `CC1CCC(NC(=O)c2ccc(CSc3nc4ccncc4n3Cc3ccc(F)cc3)cc2)CC1` (stereo not drawn) was inactive: -8.3%.

(Values after PubChem BioAssay AID1159614 (National Center for Advancing Translational Sciences (NCATS), 2016).)
